{
  "source": "PubChem BioAssay AID686979",
  "about": "(National Center for Advancing Translational Sciences (NCATS), 2013)",
  "note": "Out of some 420,000 compounds screened, about 50,000 (12%) were called active. The inconclusive results got no clear call from the source; some entries with a clear call stand among them for comparison. The call rests on the fitted dose curve; in most records, active means well fitted inhibition curve with a large enough effect; inconclusive means small, poorly fitted or top-dose-only effect; inactive means flat fitted curve, though single readings scatter. No potency is given beside an inconclusive call; the fits are too rough. Potency means the concentration at half of the fitted maximal effect; tags describe the fitted curve by direction and shape.",
  "data": [
    {"assay": "qHTS for Inhibitors of human tyrosyl-DNA phosphodiesterase 1 (TDP1): qHTS in cells in presence of CPT; further: nearly all actives have a fitted effect of over 55% in size", "conditions": "chicken DT40 Tdp1-/-;hTDP1 cells + 20 nM CPT, ATP luminescence, 48 h; series mostly up to 46.2 µM", "in_short": "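Cell growth measured by CellTiter-Glo luminescence after a minimum 48 h, 37 C compound exposure with 20 nM CPT in Tdp1-knockout DT40 cells stably expressing hTDP1, seeded 400/well; qHTS titration format.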", "values": [
      {"smiles": "C=CCOC(=O)C1=C(C)NC(SC)=C(C#N)C1c1cccs1", "note": "(centres undefined)", "Potency": "inconclusive [inhibitor, single point]"},
      {"smiles": "COc1ccc(C=C2SC(=S)N(CCCN3CCOCC3)C2=O)c(OC)c1", "Potency": "inconclusive [inhibitor, single point]"},
      {"smiles": "COCC(=O)N1CCC2(CCN(Cc3nccs3)CC2)CC1", "Potency": "inactive"},
      {"smiles": "CCn1c(=O)cc(OCC(=O)N2CCN(c3cccc(C(F)(F)F)c3)CC2)c2ccccc21", "Potency": "active: 16.4 µM"},
      {"smiles": "COc1cc(CN(CC2CCCO2)C(=O)c2ccccc2F)cc(OC)c1OC", "note": "(centres undefined)", "Potency": "inconclusive [inhibitor, single point]"},
      {"smiles": "O=C(CC1(O)C(=O)N(CN2CCOCC2)c2ccccc21)c1ccccc1", "note": "(centres undefined)", "Potency": "inconclusive [inhibitor, single point]"},
      {"smiles": "CC1Oc2ccccc2N(CC(=O)N2CCc3ccccc32)C1=O", "note": "(centres undefined)", "Potency": "inactive"},
      {"smiles": "Cc1cc(C)c(NC(=O)Cn2c(=O)n(CCCCC(=O)NCc3ccccc3Cl)c(=O)c3ccccc32)c(C)c1", "Potency": "inconclusive [inhibitor, single point]"},
      {"smiles": "CCOc1ccc(NC(=O)CN2C(=O)COc3ccc(S(=O)(=O)Nc4ccccc4)cc32)cc1", "Potency": "inconclusive [inhibitor, partial curve]"},
      {"smiles": "C[C@H](CO)N1C[C@H](C)[C@@H](CN(C)S(=O)(=O)c2ccccc2)Oc2c(NC(=O)CCC(F)(F)F)cccc2C1=O", "Potency": "inactive"},
      {"smiles": "CC(=O)N1CC(=O)N(Cc2ccccc2)/C(=C/c2ccccc2)C1=O", "Potency": "inactive"},
      {"smiles": "O=C(NCCc1ccccc1F)C1CCCN(c2nc3ccccc3s2)C1", "note": "(centres undefined)", "Potency": "inactive"},
      {"smiles": "Cc1ccc(OCCSc2nc3ccccc3n2CC(=O)N2CCOCC2)c(C)c1", "Potency": "inconclusive [inhibitor, partial curve, poor fit]"},
      {"smiles": "O=C(c1cnn2c(C(F)F)cc(C3CC3)nc12)N1CCc2ccccc2C1", "Potency": "inconclusive [inhibitor, single point]"},
      {"smiles": "CCC(C)(C)NC(=O)c1cc(C(=O)OC)cc([N+](=O)[O-])c1", "Potency": "inactive"},
      {"smiles": "COc1ccc(S(=O)(=O)NCc2ccncc2)cc1OC", "Potency": "active: 12.6 µM"},
      {"smiles": "O=C(COC(=O)/C=C/c1cccc(C(F)(F)F)c1)NC(c1ccccc1)c1ccccc1", "Potency": "inconclusive [inhibitor, partial curve]"},
      {"smiles": "COc1cc(C(=O)NC2CC2)cc(OC)c1OC", "Potency": "inactive"},
      {"smiles": "Cc1cc(C(=O)CSc2nncs2)c(C)n1-c1ccc2c(c1)OCO2", "Potency": "active: 20.6 µM"},
      {"smiles": "Cc1n[nH]c(C)c1CCc1nc2c3ccccc3nc(SCC(=O)Nc3ccccc3F)n2n1", "Potency": "inconclusive [inhibitor, single point]"},
      {"smiles": "Oc1ccc2ccccc2c1CNc1ccc(Br)cn1", "Potency": "inactive"},
      {"smiles": "CCN(CC)C(=O)CC(c1ccc(N(C)C)cc1)c1c(OC)cc(OC)c2c(-c3ccccc3)cc(=O)oc12", "note": "(centres undefined)", "Potency": "inconclusive [inhibitor, single point]"},
      {"smiles": "CCN(CC)c1ccc(C2CC(=O)NC3=C2C(=O)CC(C)(C)C3)cc1", "note": "(centres undefined)", "Potency": "inconclusive [inhibitor, single point]"},
      {"smiles": "COc1ccc(OC)c(-c2nc(C(=O)NCC3CCCO3)cc3c2[nH]c2ccccc23)c1", "note": "(centres undefined)", "Potency": "active: 18.4 µM"},
      {"smiles": "COc1ccc(CNC(=O)COc2ccccc2C(=O)c2cnn(-c3ccccc3)c2)cc1OC", "Potency": "inconclusive [inhibitor, partial curve]"},
      {"smiles": "CCOC(=O)C1CCCN(Cc2ccc(OC)c(OCc3ccccc3)c2)C1", "note": "(centres undefined)", "Potency": "inactive"},
      {"smiles": "COc1ccc(CCNC(=O)c2cccc(NC3=NC4CS(=O)(=O)CC4S3)c2)c(OC)c1", "note": "(centres undefined)", "Potency": "inactive"},
      {"smiles": "COc1ccc(S(=O)(=O)N/N=C\\c2ccc3c(c2)OCO3)c(OC)c1", "Potency": "inconclusive [inhibitor, partial curve, poor fit]"},
      {"smiles": "O=C(NNc1ncnc2c1cnn2-c1ccccc1)c1cccc(Cl)c1", "Potency": "inconclusive [inhibitor, partial curve]"},
      {"smiles": "CCc1ccc2nc(NC(=O)CN3C(=O)NC4(CCCC4)C3=O)sc2c1", "Potency": "inconclusive [inhibitor, single point]"},
      {"smiles": "COc1ccc(OC)c(NC(=O)Nc2c(O)ccc3ccccc23)c1", "Potency": "active: 14.6 µM"},
      {"smiles": "Cc1ccc(-c2cc(C(=O)N/N=C/c3c[nH]c4ccccc34)n[nH]2)o1", "Potency": "inconclusive [inhibitor, single point]"},
      {"smiles": "CCCN(C(=O)Cc1coc2cc(OC)ccc12)C1CCS(=O)(=O)C1", "note": "(centres undefined)", "Potency": "inactive"},
      {"smiles": "CC(=O)c1ccc(S(=O)(=O)N2CCN(C(=O)/C=C/c3ccc4ccccc4n3)CC2)cc1", "Potency": "inconclusive [inhibitor, single point]"},
      {"smiles": "Cc1cc(N2CCC(C)CC2)nc(NCc2ccccc2)n1", "Potency": "inconclusive [inhibitor, single point]"},
      {"smiles": "COCCNC(=O)C1=C(N)C(C(=O)Nc2ccc(C)c(S(=O)(=O)N3CCCCC3)c2)SC1=Nc1ccc(C)cc1C", "note": "(centres undefined)", "Potency": "active: 18.4 µM"},
      {"smiles": "CCc1ccc2c(c1)C(O)(CC(=O)c1cccs1)C(=O)N2", "note": "(centres undefined)", "Potency": "inconclusive [inhibitor, single point]"},
      {"smiles": "COc1ccc(C(=O)NCc2nnnn2-c2ccc(C)c(C)c2)cc1", "Potency": "inconclusive [inhibitor, single point]"},
      {"smiles": "CCCCN(CC)CCCNC(=S)Nc1ccc2nc(N3CCN(CC)CC3)cc(C)c2c1", "Potency": "inconclusive [inhibitor, single point]"}
    ]}
  ]
}
